Publication PMC11000209

Target: His6-Ec.BAP (22–471) (E. coli (printed as Ec.)) [phosphatase: P00634]
Assay: SEC

- stoichiometry N: 4
Substance: His6-Ec.BAP ([…]) (a stretch of the chain, sequence not shown) (enzyme; other documents disagree on this pair)
